Assay results: US7842802B2, “Vinorelbine derivatives” (priority 2003, dated 2010)
Where a name gives a salt, the structure may show the parent alone. Read-outs that look alike come from different tables or passages of the source. Entries with a single value are a further part of the results.

melting point (ditartrate salt): 204 to 210 °C (dec.)
melting point (trifluoroacetate salt): 236 to 242 °C (dec.)
Compound: CCC1=C[C@H]2CN(C1)Cc1c([nH]c3ccc(Sc4cccc(O)c4)cc13)[C@@](C(=O)OC)(c1cc3c(cc1OC)N(C)[C@H]1[C@@](O)(C(=O)OC)[C@H](OC(C)=O)C4C(CC)=CCN5CC[C@]31[C@H]45)C2 (some centres unmarked) (as salt: tartrate) [Example 18, 11′-(3-hydroxyphenysulfanyl)vinorelbine]
